Data as given in paper PMC4336329 (PLoS ONE, 2015).
In all, about 310,000 compounds went through this assay and about 2,200 (0.71%) showed an effect of 50% or more. The effect is printed as a negative number. The list shows a part of the results.

target: human ether-à-go-go-related gene (hERG) potassium channel (human, UniProt Q12809); assay: primary screen, population patch clamp on CHO cells stably expressing hERG
Experimental: Briefly, Chinese hamster ovary (CHO) cells stably expressing the hERG channel were dislodged from tissue culture flasks and dispensed into PPC plates. […] During the recording, background leak currents were estimated by a 100 ms step to -80 mV from an initial holding potential of -70 mV and subtracted from the subsequent current measurement. The campaign was conducted in two phases using slight differences in recording protocol. In the first phase, the initial voltage pulse used a 100 ms step to -30 mV from a holding potential of -70 mV, a 2 s conditioning step to +25 mV, and a 2 s test step to -30 mV. During the second phase of the screen, the potential during the conditioning step was raised to +45 mV. In both phases of the campaign, a secondary voltage pulse was applied using the same parameters as the second phase initial pulse. The initial and secondary pulses were applied in the absence of compound, and upon application of 1 μM and 10 μM test concentrations. Small molecule effects on hERG current density were quantified by […].

Chain of human ether-à-go-go-related gene (hERG) potassium channel (Q12809 whole entry, looked up): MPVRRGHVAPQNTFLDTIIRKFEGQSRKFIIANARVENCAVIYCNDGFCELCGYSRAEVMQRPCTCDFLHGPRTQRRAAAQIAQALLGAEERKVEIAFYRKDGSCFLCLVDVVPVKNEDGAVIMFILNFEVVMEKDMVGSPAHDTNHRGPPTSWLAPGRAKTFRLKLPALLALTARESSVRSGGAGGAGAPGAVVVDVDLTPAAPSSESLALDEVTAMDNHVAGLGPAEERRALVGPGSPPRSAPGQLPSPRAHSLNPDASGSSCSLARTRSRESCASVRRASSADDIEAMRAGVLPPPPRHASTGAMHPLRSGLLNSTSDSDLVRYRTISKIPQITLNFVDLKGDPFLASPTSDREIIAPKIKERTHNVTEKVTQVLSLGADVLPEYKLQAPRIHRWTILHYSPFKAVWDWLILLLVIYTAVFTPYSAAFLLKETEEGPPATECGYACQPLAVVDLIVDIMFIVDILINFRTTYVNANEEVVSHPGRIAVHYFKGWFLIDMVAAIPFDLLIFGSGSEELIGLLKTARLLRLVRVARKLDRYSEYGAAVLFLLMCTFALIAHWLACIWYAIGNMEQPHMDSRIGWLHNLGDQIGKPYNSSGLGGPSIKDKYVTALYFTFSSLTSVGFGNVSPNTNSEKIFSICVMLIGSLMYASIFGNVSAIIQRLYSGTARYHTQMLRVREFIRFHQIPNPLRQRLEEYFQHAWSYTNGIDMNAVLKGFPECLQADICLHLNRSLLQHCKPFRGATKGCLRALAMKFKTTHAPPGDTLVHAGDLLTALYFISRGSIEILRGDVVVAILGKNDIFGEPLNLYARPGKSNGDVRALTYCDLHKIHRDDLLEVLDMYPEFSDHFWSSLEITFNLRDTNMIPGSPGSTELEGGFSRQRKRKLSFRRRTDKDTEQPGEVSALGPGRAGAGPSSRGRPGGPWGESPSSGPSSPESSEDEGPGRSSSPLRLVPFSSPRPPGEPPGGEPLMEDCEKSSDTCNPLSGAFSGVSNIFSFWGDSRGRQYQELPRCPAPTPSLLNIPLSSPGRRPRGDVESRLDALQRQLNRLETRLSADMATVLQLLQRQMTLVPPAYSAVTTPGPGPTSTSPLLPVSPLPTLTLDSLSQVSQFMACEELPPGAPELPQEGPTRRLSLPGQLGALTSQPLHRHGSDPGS

SMILES | hERG current change (%, negative = inhibition) at 1uM
CC(=O)n1cc([C@H]2C=C(C(=O)Nc3ccccc3)O[C@@H](OCCCCO)C2)c2ccccc21 | 1.76%
Cc1ccc(CN2CCN(Cc3cn(C(C)C)c4ccccc34)CC2CCO)o1 (centres unmarked) | -5.27%
CCOc1ccc(NC(=S)NCC(c2cccnc2)N2CCOCC2)cc1 (centres unmarked) | 9.05%
Cc1ccc(-n2c(SCC(=O)N3CCCC3)nc3c(c2=O)SCC3)cc1 | 14.1%
O=C1CNC(=S)N1CCc1ccc(Cl)cc1 | 12.3%
Clc1ccc2[nH]c3c(NCCN4CCOCC4)ncnc3c2c1 | -2.76%
Cn1c2c(c(=O)n(C)c1=O)C(c1ccc(F)cc1)C(C#N)=C(N)O2 (centres unmarked) | 13.3%
O=C(O)c1[nH]c2ccccc2c1NS(=O)(=O)Cc1ccccc1 | 6.53%
C#CCn1cc[n+](CC(=O)N(C)C)c1.[Br-] | 11.8%
COc1ccc(OC)c(-c2cc(C(=O)Nc3cc(C)n(Cc4ccc(Cl)cc4)n3)no2)c1 | 1.84%
CCOc1ccc(Oc2c(/C=N/NC(=O)COc3ccccc3OC)c(C)nn2-c2ccccc2)cc1 | 15.8%
S=c1nccc(-c2cccs2)[nH]1 | 6.42%
O=C(CSc1nnc2c(Cl)cc(Cl)cn12)NC1CCS(=O)(=O)C1 (centres unmarked) | -4.31%
COC(=O)C1C(=O)C2=C(CC1C)NC(C)=C(C(=O)OC(C)C)C2c1ccc(OC)c(O)c1 (centres unmarked) | 11%
COC(=O)c1cccc(NC(=O)Nc2ccc(Cl)cc2)c1 | 11.9%
CCOC(=O)N1CCC(=NNC(=O)Cn2ccc(C(F)(F)F)n2)CC1 | 2.06%
N=c1c2c3c(sc2nc2n1CCC2)CCCC3 | -7.57%
CCO[C@@H]1OC(C(=O)N2CCN(C)CC2)=C[C@H](c2ccc(C(F)(F)F)cc2)[C@H]1CCCO | 3.21%
O=C(NCC1CCCN(Cc2ccc3nonc3c2)C1)c1cccc(C(F)(F)F)c1 (centres unmarked) | -22.3%
O=P(Nc1ccccc1)(Nc1ccccc1)Oc1cccc(Cl)c1 | -11.3%
COC(=O)c1ccc(Nc2ncnc3c2cnn3-c2cccc(C)c2)cc1 | 5.6%
NS(=O)(=O)c1ccc(NC(=O)NC2CC(=O)N(c3ccc4c(c3)OCCO4)C2)cc1 (centres unmarked) | 8.01%

SMILES | hERG current change (%, negative = inhibition) at 1uM
CCOC(CC(=O)NNC(=O)c1c(-c2c(Cl)cccc2Cl)noc1C)OCC | 9.76%
COc1ccc(S(=O)(=O)N2c3ccc(F)cc3CCC2C)cc1 (centres unmarked) | 3.58%
COc1ccccc1N(CC(=O)Nc1cc(C)on1)S(=O)(=O)c1ccc(Cl)cc1 | 6.52%
COc1ccccc1CNC(=O)CNC(=O)c1sc2ccccc2c1Cl | 16.2%
O=C(NCCCn1ccnc1)C(Cc1ccc([N+](=O)[O-])cc1)N1C(=O)c2ccccc2C1=O (centres unmarked) | -39.2%
CN1CCN(S(=O)(=O)c2cccc(C(=O)NCc3ccccc3Cl)c2)CC1 | 3.02%
CCC(C)Nc1nnnc2c1sc1nc3c(cc12)COC(C)(C)C3 (centres unmarked) | -1.38%
COCCCNc1ccnc2c(Cl)cccc12 | -6.82%
CCC(C)Sc1nc2c(c(=O)[nH]c(=O)n2C)n1C (centres unmarked) | 9.64%
Cc1scc(C(=O)N/N=C/c2ccc(OC(C)C)cc2)c1C | 6.61%
CC(=O)Nc1cccc(/C(C)=N/NS(=O)(=O)c2ccccc2)c1 | 11.5%
CC(C)(C)CN1CCNC(=O)C1CC(=O)NCc1cccc(-n2cccn2)c1 (centres unmarked) | 12.2%
COc1ccc(C(=O)Sc2ccc(C)cc2)cc1OC | 15.4%
CCOc1ccc(NC(=O)CN(C)C(=O)c2ccc(N3CCCCCC3)c([N+](=O)[O-])c2)cc1OCC | 17.6%
COc1cccc(C(=O)Oc2ccc(/C=N/NC(=O)c3ccncc3)cc2OC)c1 | 6.21%
COc1ccc(OCC(O)CN2CCN(CC(O)COc3ccc(OC)cc3)CC2)cc1 (centres unmarked) | 3.29%
Cc1cc(C)n(C(=O)CNC(=O)C2COc3ccccc3O2)n1 (centres unmarked) | 15.9%
Cc1ccc(C(=O)NC(=S)Nc2cccc(NC(=O)c3ccccc3)c2)cc1[N+](=O)[O-] | 1.28%
Cc1ccc(S(=O)(=O)N2CCC(C(=O)NCC(C)(C)N3CCOCC3)CC2)c(C)c1 | -9.3%
Cc1ccc(N2C(=O)NC(=O)/C(=C\c3ccsc3)C2=O)cc1C | 12.8%
CCOC(=O)c1cccc([P+](=O)O)c1 | 4.29%
COc1ccc(-c2csc3ncnc(Oc4cccc5ccc(C)nc45)c23)cc1 | 8.28%
